Data from the supplement of paper PMC4967469.
By IC50 is meant the dose at which the fit gives 50% viability; where the fit passes the top or lowest dose, that dose stands as a limit. For AUC the same curve is integrated over the 256-fold range of doses and scaled to a fraction: 1 means no effect, lower means more sensitive. For part of these data: An inferred top dose was calculated from the reported fits. For part of these data: Drugs with an entry number were screened twice under separate entries, and the two screens often disagree.

Columns and labels:
Assay in all cases: Viability of human cancer cell lines after 72 h of drug (GDSC screen)
JNK-9L = compound: Fc1cc(-c2ccnc(Nc3ccc(-n4cnc(N5CCOCC5)n4)cc3)n2)cc(N2CCOCC2)c1 [JNK-9L]; details: top dose 5.12 µM; top dose inferred
Method: (§1)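 Human cancer cell lines in 384-well plates, medium with 10% serum, drug for 72 h over a 256-fold dose range (nine 2-fold or five 4-fold steps up to the top dose). Adherent lines were fixed and stained with the nucleic acid dye Syto60, suspension lines read with resazurin; signal relative to control wells, capped at 0 and 100%. One two-parameter sigmoid per drug and line, fitted in a mixed model over all curves with the slope shared within a line.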

CUDC-101 = compound: C#Cc1cccc(Nc2ncnc3cc(OC)c(OCCCCCCC(=O)NO)cc23)c1 [CUDC-101]; details: top dose 5.12 µM; top dose inferred
Method: as §1

RDEA119 = compound: COc1cc(F)c(F)c(Nc2ccc(I)cc2F)c1NS(=O)(=O)C1(C[C@H](O)CO)CC1 [RDEA119]; details: top dose 5 µM, top dose inferred
Method: as §1

5-Fluorouracil = compound: O=c1[nH]cc(F)c(=O)[nH]1 [5-Fluorouracil]; details: top dose 32 µM; top dose inferred
Method: as §1

OSU-03012 = compound: NCC(=O)Nc1ccc(-n2nc(C(F)(F)F)cc2-c2ccc3c(ccc4ccccc43)c2)cc1 [OSU-03012]; details: top dose 16 µM; top dose inferred
Method: as §1

AC220 = compound: CC(C)(C)c1cc(NC(=O)Nc2ccc(-c3cn4c(n3)sc3cc(OCCN5CCOCC5)ccc34)cc2)no1 [AC220]; details: top dose 1.024 µM; top dose inferred
Method: as §1

QS11 = compound: OC[C@H](Cc1ccccc1)Nc1nc(Oc2ccc3c(c2)CCC3)nc2c1ncn2Cc1ccc(-c2ccccc2)cc1 [QS11]; details: top dose 10.24 µM
Method: as §1

Cell Line | AUC (JNK-9L) | IC50 (JNK-9L) [nM] | AUC (CUDC-101) | IC50 (CUDC-101) [nM] | AUC (RDEA119; screen: GDSC drug entry 1014) | IC50 (RDEA119; screen: GDSC drug entry 1014) [nM] | AUC (RDEA119; screen: GDSC drug entry 1526) | IC50 (RDEA119; screen: GDSC drug entry 1526) [nM] | AUC (5-Fluorouracil) | IC50 (5-Fluorouracil) [nM] | AUC (OSU-03012) | IC50 (OSU-03012) [nM] | AUC (AC220) | IC50 (AC220) [nM] | AUC (QS11) | IC50 (QS11) [nM]
DAN-G (pancreas, adherent) | 0.84 | 2900 | 0.739 | 1380 | 0.825 | 2510 | 0.862 | 3430 | 0.937 | > 32000 | 0.991 | > 16000 | 0.991 | > 1020 | 0.991 | > 10200
DB (B-cell lymphoma, suspension) | 0.566 | 495 | 0.247 | 53.9 | 0.979 | > 5000 | 0.974 | > 5000 | 0.833 | 24400 | 0.683 | 3500 | 0.981 | > 1020 | 0.863 | > 10200
DBTRG-05MG (glioma, adherent) | 0.61 | 677 | 0.659 | 959 | 0.642 | 832 | 0.778 | 2400 | 0.895 | > 32000 | 0.871 | > 16000 | 0.983 | > 1020 | 0.983 | > 10200
DG-75 (Burkitt lymphoma, suspension) | 0.708 | 1250 | 0.662 | 905 | 0.974 | > 5000 | 0.971 | > 5000 | 0.955 | > 32000 | 0.772 | 6260 | 0.986 | > 1020 | 0.98 | > 10200
DJM-1 (skin, adherent) | 0.858 | 4130 | 0.973 | > 5120 | 0.855 | 3910 | – | – | 0.955 | > 32000 | 0.765 | 5800 | 0.989 | > 1020 | 0.957 | > 10200
DK-MG (glioma, adherent) | 0.923 | > 5120 | 0.712 | 1740 | 0.731 | 2010 | 0.727 | 1930 | 0.941 | > 32000 | 0.877 | > 16000 | 0.772 | 605 | 0.975 | > 10200
DMS-53 (small cell lung carcinoma, adherent) | 0.71 | 1320 | 0.927 | > 5120 | – | – | 0.974 | > 5000 | 0.986 | > 32000 | 0.988 | > 16000 | 0.988 | > 1020 | 0.986 | > 10200
DMS-79 (small cell lung carcinoma, suspension) | 0.867 | > 5120 | 0.699 | 1280 | 0.987 | > 5000 | 0.978 | > 5000 | 0.911 | > 32000 | 0.966 | > 16000 | 0.943 | > 1020 | 0.968 | > 10200
DMS-114 (small cell lung carcinoma, adherent) | 0.836 | 4150 | 0.815 | 3370 | 0.939 | > 5000 | 0.924 | > 5000 | 0.97 | > 32000 | 0.884 | > 16000 | 0.976 | > 1020 | 0.979 | > 10200
DMS-273 (small cell lung carcinoma, adherent) | 0.36 | 128 | 0.465 | 255 | 0.943 | > 5000 | 0.971 | > 5000 | 0.806 | 17400 | 0.694 | 3630 | 0.967 | > 1020 | 0.86 | 9400
DND-41 (T-cell leukaemia, suspension) | 0.502 | 324 | 0.255 | 70.7 | 0.735 | 1330 | 0.876 | 3970 | 0.671 | 5630 | 0.529 | 1180 | 0.917 | > 1020 | 0.815 | 4790
DSH1 (bladder, adherent) | 0.634 | 738 | 0.378 | 150 | 0.936 | > 5000 | 0.93 | > 5000 | 0.965 | > 32000 | 0.987 | > 16000 | 0.955 | > 1020 | 0.719 | 2590
DU-4475 (breast, suspension) | 0.602 | 575 | 0.415 | 196 | 0.187 | 46.5 | 0.247 | 69.5 | 0.63 | 4240 | 0.707 | 3370 | 0.991 | > 1020 | 0.665 | 1670
Daoy (medulloblastoma, adherent) | 0.635 | 724 | 0.4 | 174 | – | – | 0.953 | > 5000 | 0.748 | 9470 | 0.579 | 1610 | 0.973 | > 1020 | 0.765 | 3430
Daudi (Burkitt lymphoma, suspension) | 0.514 | 347 | 0.346 | 127 | 0.991 | > 5000 | 0.99 | > 5000 | 0.811 | 14300 | 0.634 | 2220 | 0.991 | > 1020 | 0.911 | > 10200
Detroit562 (head and neck, adherent) | 0.505 | 331 | 0.744 | 1540 | 0.894 | > 5000 | 0.906 | > 5000 | 0.975 | > 32000 | 0.8 | 7370 | 0.988 | > 1020 | 0.97 | > 10200
DoTc2-4510 (cervix, adherent) | 0.422 | 198 | 0.422 | 198 | 0.95 | > 5000 | – | – | 0.955 | > 32000 | 0.632 | 2260 | 0.98 | > 1020 | 0.925 | > 10200
